Reference: ChEMBL document CHEMBL4888484, “Replenishing the malaria drug discovery pipeline: Screening and hit evaluation of the MMV Hit Generation Library 1 (HGL1) against asexual blood stage Plasmodium falciparum ,using a nano luciferase reporter read-out” (2022)
The campaign covered roughly 150,000 compounds. About 540 (0.36%) showed an effect of 50% or more. Some of the results follow.

Tested on: Plasmodium falciparum
Assay: Primary screen in NF54 nanoGlo assay, in single point, at 2uM, 72h; a lower Z score goes with more inhibition
Assay type: functional, Erythrocyte
Conditions: timepoint 72 hour

SMILES | % Inhibition | Z score
CCN(CC)C(=O)[C@H](C1CCCC1)N1CCN(C(=O)Nc2ccc(C(C)C)cc2)CC1 | -12% | 1.78
CCc1ccc(C(=O)c2ccc(NCc3nnc(C(C)C)o3)cc2)o1 | -4% | 0.47
Cc1cc(F)ccc1S(=O)(=O)N1CCC[C@H](Cn2cncn2)C1 | 2% | -0.33
COc1cccc(Cn2nnc3cc(C(=O)N4CCN(c5cccc(Cl)c5)CC4)ccc32)c1 | -11% | 1.11
CC1CCN(C(=O)c2ccc(NCc3ccco3)nc2)CC1 | -15% | 2.11
Cn1cncc1C(=O)NC[C@H]1CC12CCCCC2 | 5% | -0.66
CC1N(CCOC2CCCCO2)CCC12CCOCC2 (stereo unspecified) | 12% | -1.74
O=C(c1ccc(F)c(F)c1)N1CC[C@H](Oc2ncccc2C(=O)N2CCCCC2)C1 | -16% | 2.65
Cc1cc(S(=O)(=O)Nc2cccc(CN3CCOCC3)n2)c(C)o1 | -1% | 0.15
CC[C@]1(O)CCCN(C(=O)Cc2cc(C)ccn2)C1 | -2% | 0.3
C[C@H](NC(=O)CCCC(=O)N(C)C)c1c(Cl)ccc(F)c1Cl | -9% | 1.29
CO[C@@H](C)C(=O)N1CC(n2cc(-c3ccccc3)nn2)C1 | -8% | 0.77
CCCS(=O)(=O)N(CCOC)CC(=O)N(Cc1ccc(Cl)cc1)C1CCN(C(=O)Nc2ccccc2F)CC1 | -1% | 0.12
CCCc1noc(-c2cc(-c3cccn3C)n[nH]2)n1 | -1% | 0.2
COc1ccc(Cn2nc(C)n(-c3ccc(C(C)C)cc3)c2=O)cc1 | -6% | 1.07
C#CCCC1(CCC(=O)N(C)Cc2ccoc2)N=N1 | -16% | 1.99
COC[C@H](Nc1ccc(Cc2nnc3n2CCC3)cc1)C1CC1 | -3% | 0.36
Cc1nn(Cc2nc(CC(C)C)no2)c(C)c1Br | -12% | 1.12
O=C(Nc1nccs1)C(F)(F)C(F)(F)C(F)(F)C(F)(F)C(F)(F)C(F)(F)C(F)(F)C(F)(F)C(F)(F)C(F)(F)Cl | 1% | -0.09
COCc1cc(CNC(=O)C(C)(C)N2CCCC2)n[nH]1 | 4% | -0.83
O=C(C[C@H]1Cn2cccc2C1=O)Nc1ccc(O)cc1 | -10% | 1.21
O=C(NCC1CCN(C(=O)c2nc(=O)[nH]c3ccccc23)CC1)[C@H]1CCOC1 | -13% | 2.47

SMILES | % Inhibition | Z score
CCN1C[C@]2(CCCN(C(=O)COc3ccccc3O)C2)CCC1=O | -9% | 1.71
Cc1cccc2c1OCC(NC(=O)N1CCCC1C1COCCC1(C)O)C2 (stereo unspecified) | -2% | 0.38
C[C@H](NCc1cc(C(N)=O)cs1)c1cccc(Cl)c1 | 34% | -1.06
CC(C)(C)n1ncc(-c2ccccc2)c1NC(=O)c1cnccn1 | -7% | 1.09
COCCN(Cc1cccn1C)C[C@H](O)COCC(C)C | -8% | 1.12
Cc1c(NC(=O)c2ccc3c(c2)N(C)CCO3)cccc1C(=O)N1CCOCC1 | 2% | -0.27
COCCN(Cc1cc2cc(C)ccc2nc1N1CCCC1)C(=O)c1cc(C)nn1C | -14% | 1.78
CN(C)S(=O)(=O)c1ccc(N2CCCC2)c(C(=O)N2CCCN(C(N)=O)CC2)c1 | 0% | 0.04
COCc1nc(CCCc2ccc(Cl)cc2)n(CC(C)(C)O)n1 | -14% | 1.75
O=C(N[C@H]1CCOC[C@@H]1OCC1CCC1)c1ccnc(-n2cnnc2)c1 | -3% | 0.41
CC(C)n1c(N2CCN(C(=O)Cc3ccccc3)CC2)cc(=O)n(C(C)C)c1=O | 3% | -0.43
O=c1[nH]c2cccnc2n1[C@@H]1CCN(Cc2c[nH]nc2-c2ccc(F)cc2)C1 | 0% | -0.05
O=C(Nc1ccccc1)C(=O)N1CCN(CC2CC2)[C@@H]2CS(=O)(=O)C[C@@H]21 | -7% | 0.76
COc1ccc(-c2noc(-c3cccnc3NCc3ccc(C)cc3)n2)cc1 | -3% | 0.39
OCC[C@H]1CCc2ccccc2N1Cc1cnc2ccccc2n1 | 4% | -0.42
COc1cc(OC)cc([C@@H]2c3nc[nH]c3CCN2CC2CCCC2)c1 | 2% | -0.37
CC(=O)N[C@H]1C[C@H]2CN(Cc3ccc(C)cn3)[C@@H](CC(C)C)C(=O)N2C1 | -6% | 1
CCOc1ncc(Br)cc1C(=O)O | 33% | -4.23
Cc1ccc(OCC(=O)Nc2ccc3c(c2)OCO3)cn1 | -9% | 1.28
Cc1nn(C)c(C(=O)N2CCC3(CCCC3)C2)c1Cl | 1% | -0.28
NC(=O)c1ccc(C(=O)N[C@H]2CCOC[C@@H]2OCc2cscn2)cc1 | -3% | 0.46
